From PubChem BioAssay AID623901 (Broad Institute, 2012)
Out of some 340,000 compounds screened, about 470 (0.14%) were called active. The shares of active, inactive and inconclusive entries below differ from those in the screen.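 How the source made its calls: active means mean activation of 30% or more, with every replicate also reaching 30%; inconclusive means mean activation of 30% or more but some replicate falls short; inactive means the rest.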

Experiment: small molecules raising miR-122 sensor signal – cell-based, Huh7 psiCHECK-miR122, Renilla luciferase, single point, primary screen (AID 623901);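 further: 0% = median of neutral control wells and 100% = median of positive control wells; higher luciferase signal means stronger suppression of miR-122 activity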
Details: 48 h, at 12.5 µM, stronger effect = higher value

Which activation does the source give for `COCC(=O)N(C)C[C@H]1Oc2cc(-c3cncnc3)ccc2S(=O)(=O)N([C@H](C)CO)C[C@@H]1C` here?
Its activation is inactive: -1.94%.

Which activation does the source give for `O=C(NC(Nc1ncc(S(=O)(=O)c2ccc([N+](=O)[O-])cc2)s1)(C(F)(F)F)C(F)(F)F)c1ccc(Cl)cc1` here?
The activation was active: 43.7%.

With `C[C@H](CO)N1C[C@H](C)[C@H](CN(C)C(=O)NC2CCCCC2)Oc2ncc(-c3cccc(C(F)(F)F)c3)cc2C1=O` as the molecule, how does the activation read?
The activation was active: 32.6%.

With `CCCNC(=O)N1[C@@H]2CN(C(=O)c3ccccc3)c3ccccc3[C@@H]2[C@@H]1CO` as the molecule, how does the activation read?
Its activation is active: 35.9%.

Which activation does the source give for `CO[C@H]1CN(C)C(=O)c2ccc(NC(C)=O)cc2OC[C@@H](C)N(C(=O)CC2CC2)C[C@H]1C` here?
The activation was inconclusive: 33.3%.

With `CCNC(=O)Nc1ccc2c(c1)C(=O)N(C)[C@@H]1CC[C@H](CC(=O)NCC3CC3)O[C@@H]1CO2` as the molecule, how does the activation read?
The activation was inconclusive: 33.3%.

With `c1ccc(-c2nnc3n2CCCC3)cc1` as the molecule, how does the activation read?
The activation was active: 32.9%.

Which activation does the source give for `COC(=O)C[C@@H]1CC[C@@H]2[C@H](COc3ccc(NC(=O)Nc4cccc(F)c4)cc3C(=O)N2C)O1` here?
Its activation is inconclusive: 42.5%.

Which activation does the source give for `CCCNC(=O)Nc1ccc2c(c1)OC[C@H](C)N(CCC)C[C@H](C)[C@H](OC)CN(C)C2=O` here?
The activation was inconclusive: 32.8%.

For `CCOc1ccc(NC(=S)N(CCCN2CCCC2)Cc2cccn2Cc2ccc(Cl)cc2)cc1`, which activation is on record?
Its activation is active: 32.6%.

With `Cc1nn(C)cc1NC(=O)C[C@@H]1CC[C@@H]2[C@H](COc3ccc(NC(=O)Nc4cccc(Cl)c4)cc3C(=O)N2C)O1` as the molecule, how does the activation read?
The activation was inconclusive: 37.8%.

With `Cc1cc(C)cc(Cn2c3ccc(NC(=S)NCc4ccccc4F)cc3c(=O)n2C)c1` as the molecule, how does the activation read?
The activation was inactive: -93.8%.

For `C[C@@H]1CN([C@@H](C)CO)C(=O)c2cccc(NS(C)(=O)=O)c2O[C@H]1CN(C)S(=O)(=O)c1ccc(Cl)cc1`, which activation is on record?
Its activation is inconclusive: 31.5%.

Which activation does the source give for `C[C@H]1CN([C@@H](C)CO)C(=O)c2cc(-c3cccc(F)c3)cnc2O[C@@H]1CN(C)Cc1ccncc1` here?
The activation was inactive: 0.641%.

With `CN(C)CCNc1nc2sc3c(c2c(=O)n1CCc1ccccc1)CCCCC3` as the molecule, how does the activation read?
The activation was active: 32.4%.

With `CCNC(=O)Nc1ccc2c(c1)C(=O)N(C)[C@H]1CC[C@H](CC(=O)NCCN3CCCC3)O[C@@H]1CO2` as the molecule, how does the activation read?
Its activation is active: 36.7%.

Which activation does the source give for `C[C@H]1CN([C@@H](C)CO)C(=O)c2cc(Br)cnc2O[C@H]1CN(C)C(=O)c1ccc2c(c1)OCO2` here?
Its activation is inactive: -4.5%.

With `C[C@H](CO)N1C[C@H](C)[C@H](CN(C)S(=O)(=O)c2ccc(F)cc2)Oc2ccc(NS(C)(=O)=O)cc2C1=O` as the molecule, how does the activation read?
The activation was inconclusive: 35%.

For `CCNC(=O)CCC(=O)Nc1cc(Cl)ccc1C`, which activation is on record?
Its activation is active: 35.8%.

With `COC(=O)C[C@H]1CC[C@@H]2[C@H](COc3ccc(NC(=O)c4cc(F)cc(F)c4)cc3C(=O)N2C)O1` as the molecule, how does the activation read?
Its activation is inconclusive: 33.3%.

For `COCC#Cc1ccc2c(c1)O[C@@H](CN(C)C(=O)COC)[C@@H](C)CN([C@@H](C)CO)S2(=O)=O`, which activation is on record?
Its activation is inactive: 0.209%.

For `CC(NC(=O)CN(c1cccc(C(F)(F)F)c1)S(=O)(=O)c1ccc(Cl)c([N+](=O)[O-])c1)c1ccccc1` (centres undefined), which activation is on record?
Its activation is inconclusive: 42.5%.

Which activation does the source give for `CCC(=O)Nc1ccc2c(c1)OC[C@H](C)N(C(=O)c1ccccn1)C[C@H](C)[C@@H](OC)CN(C)C2=O` here?
The activation was inactive: -1.03%.

For `CCCCCCCCCCn1c2c(c(=N)c3c1CCC3)CCC2`, which activation is on record?
Its activation is active: 66.2%.

With `C[C@H](CO)N1C[C@H](C)[C@@H](CN(C)Cc2cccc(F)c2)Oc2ncc(Br)cc2C1=O` as the molecule, how does the activation read?
The activation was inactive: -7.26%.

With `COc1ccc(-c2oc3ncn(CCN4CCOCC4)c(=N)c3c2-c2ccc(OC)cc2)cc1` as the molecule, how does the activation read?
Its activation is active: 41.8%.

Which activation does the source give for `CCCCS(=O)(=O)/C=C\C=C/S(=O)(=O)CCCC` here?
The activation was inconclusive: 30.8%.

For `CNC(=O)C[C@@H]1CC[C@@H]2[C@@H](COc3ccc(NC(=O)NC(C)C)cc3C(=O)N2C)O1`, which activation is on record?
Its activation is inconclusive: 33.3%.

Which activation does the source give for `COc1cc(N)c(Cl)cc1NC(=O)c1ccccc1` here?
The activation was inconclusive: 40.1%.

Which activation does the source give for `CNC(=O)C[C@H]1CC[C@@H]2[C@H](COc3ccc(NS(=O)(=O)c4ccc(F)cc4)cc3C(=O)N2C)O1` here?
Its activation is inconclusive: 33.3%.

Which activation does the source give for `COc1cc(-c2nnc3sc(C4CCCCC4)nn23)cc(OC)c1OC` here?
Its activation is active: 32.1%.

Which activation does the source give for `CN(C)CCCN(C(=O)CCc1ccccc1)c1nc2ccc(Br)cc2s1` here?
Its activation is inconclusive: 54.6%.

Which activation does the source give for `C/C=C/c1ccc([C@@H]2[C@@H](CO)N[C@@H]2CN(CC)C(=O)CN2CCOCC2)cc1` here?
The activation was inconclusive: 125%.

For `CC[n+]1ccccc1/C=C/c1ccc(N(C)C)cc1`, which activation is on record?
Its activation is inconclusive: 39.4%.

Which activation does the source give for `C/C=C/c1ccc([C@H]2[C@H](CO)N(C(C)=O)[C@H]2CN(C)C(=O)c2ccccn2)cc1` here?
Its activation is inconclusive: 50%.

With `C[C@H]1CN([C@@H](C)CO)S(=O)(=O)c2ccc(-c3ccccc3)cc2O[C@H]1CN(C)Cc1ccccc1C(=O)O` as the molecule, how does the activation read?
Its activation is inactive: -2.03%.

Which activation does the source give for `CNC(=O)C[C@H]1CC[C@@H]2[C@H](COc3ccc(NC(=O)c4ccccc4OC)cc3C(=O)N2C)O1` here?
Its activation is inconclusive: 41.7%.

With `CN(C)CCCNC(=O)C[C@@H]1CC[C@H]2[C@@H](COc3ccc(NC(=O)c4cccc(F)c4)cc3C(=O)N2C)O1` as the molecule, how does the activation read?
The activation was inconclusive: 50%.

With `C[C@H]1CN([C@@H](C)CO)S(=O)(=O)c2ccc(-c3ccc(C(=O)N(C)C)cc3)cc2O[C@@H]1CN(C)C(=O)Cc1ccccn1` as the molecule, how does the activation read?
The activation was inactive: 2.29%.

With `C/C=C/c1ccc([C@@H]2[C@@H](CO)N(C(C)=O)[C@H]2CN(C(=O)COC)C(C)C)cc1` as the molecule, how does the activation read?
The activation was inconclusive: 33.3%.

For `C[C@H](O)C#Cc1ccc2c(c1)O[C@@H](CN(C)Cc1ccc(-c3ccccc3)cc1)[C@@H](C)CN([C@@H](C)CO)S2(=O)=O`, which activation is on record?
Its activation is active: 38.5%.

For `Cc1ccc(C2CN=NC23CCc2ccccc2C3=O)cc1` (centres undefined), which activation is on record?
Its activation is active: 50.6%.

With `CNC[C@@H]1Oc2cc(C#Cc3cccc(OC)c3)ccc2S(=O)(=O)N([C@@H](C)CO)C[C@@H]1C` as the molecule, how does the activation read?
Its activation is active: 48.7%.

Which activation does the source give for `C[C@H]1CN([C@@H](C)CO)C(=O)c2cc(C#Cc3cccc(F)c3)cnc2O[C@H]1CN(C)CC1CCOCC1` here?
Its activation is inactive: -2.29%.

Which activation does the source give for `COc1cc(NC(=O)c2c(F)c(F)c(F)c(F)c2F)c(OC)cc1Cl` here?
Its activation is inconclusive: 38.9%.

Which activation does the source give for `C/C=C/c1ccc([C@@H]2[C@@H](CO)N(C(=O)Cc3cccnc3)[C@H]2CNC(C)=O)cc1` here?
The activation was inconclusive: 83.3%.

For `C[C@@H]1CN([C@H](C)CO)C(=O)c2cc(-c3cccc(C#N)c3)cnc2O[C@H]1CN(C)C(=O)C1CCC1`, which activation is on record?
The activation was inconclusive: 30.8%.

Which activation does the source give for `COC(=O)C[C@H]1CC[C@@H]2[C@@H](COc3ccc(NC(=O)Nc4ccc(Cl)cc4)cc3C(=O)N2C)O1` here?
The activation was inconclusive: 33.3%.

For `COc1ccccc1-c1ccc2c(c1)O[C@H](CN(C)C(=O)Nc1ccccc1)[C@H](C)CN([C@H](C)CO)S2(=O)=O`, which activation is on record?
The activation was inactive: -97.2%.

For `C[C@@H]1CN([C@@H](C)CO)S(=O)(=O)c2ccc(C3=CCCCC3)cc2O[C@@H]1CN(C)C(=O)Nc1ccc2c(c1)OCO2`, which activation is on record?
The activation was active: 46.3%.

Which activation does the source give for `CCCC(=O)Nc1ccc2c(c1)C(=O)N(C)[C@H]1CC[C@@H](CC(=O)NCCN3CCCCC3)O[C@H]1CO2` here?
Its activation is inconclusive: 33.3%.

Which activation does the source give for `C[C@@H]1CN([C@@H](C)CO)C(=O)Cc2cc(NC(=O)Nc3cccc4ccccc34)ccc2O[C@@H]1CN(C)C(=O)NC1CCCCC1` here?
The activation was inactive: -167%.

Which activation does the source give for `CN1C(=O)c2cc(NC(=O)c3ccc(C(F)(F)F)cc3)ccc2OC[C@@H]2O[C@@H](CC(=O)NCc3ccc4c(c3)OCO4)CC[C@@H]21` here?
The activation was inconclusive: 41.7%.

For `O=C(C(c1ccccc1)c1ccccc1)N1CCOCC1`, which activation is on record?
The activation was inactive: -213%.

For `CC1CC(C)CN(C(=O)CSc2ccsc2[N+](=O)[O-])C1` (centres undefined), which activation is on record?
The activation was inconclusive: 30.6%.

Which activation does the source give for `COc1cccc(S(=O)(=O)N(C)C[C@@H]2Oc3cc(C4=CCCCC4)ccc3S(=O)(=O)N([C@H](C)CO)C[C@@H]2C)c1` here?
The activation was inconclusive: 33.3%.

With `COC(=O)C[C@H]1CC[C@H]2[C@H](COc3ccc(NC(=O)c4cscn4)cc3C(=O)N2C)O1` as the molecule, how does the activation read?
Its activation is inconclusive: 42.5%.

With `CN1C(=O)c2cc(NC(=O)c3cccc(F)c3)ccc2OC[C@H]2O[C@H](CC(=O)N3CCc4ccccc4C3)CC[C@@H]21` as the molecule, how does the activation read?
Its activation is inconclusive: 37.8%.

With `COc1ccc(CNCCC(c2ccc(OC)cc2)c2ccccc2OC)cc1` (centres undefined) as the molecule, how does the activation read?
The activation was inconclusive: 32.2%.

Which activation does the source give for `CCN(C[C@@H]1N[C@@H](CO)[C@H]1c1ccc(-c2cccc(F)c2)cc1)C(=O)CN(C)C` here?
The activation was inconclusive: 50%.

Which activation does the source give for `CN(C)CCCNC(=O)C[C@H]1CC[C@H]2[C@H](COc3ccc(NS(C)(=O)=O)cc3C(=O)N2C)O1` here?
The activation was inconclusive: 35%.

Which activation does the source give for `CCCCCCOc1ccc(/C(C)=N/NC2=NCCN2)cc1` here?
Its activation is active: 64.8%.

For `COc1cccc(CNC(=O)C[C@@H]2CC[C@@H]3[C@H](COc4ccc(NC(C)=O)cc4C(=O)N3C)O2)c1`, which activation is on record?
The activation was inconclusive: 50%.

With `CN(C)CCCNC(=O)C[C@H]1CC[C@H]2[C@H](COc3ccc(NC(=O)NC4CCCC4)cc3C(=O)N2C)O1` as the molecule, how does the activation read?
The activation was inconclusive: 41.7%.

With `COc1ccc(C#Cc2ccc3c(c2)O[C@@H](CN(C)C(=O)NC2CCCCC2)[C@H](C)CN([C@@H](C)CO)S3(=O)=O)cc1` as the molecule, how does the activation read?
The activation was inactive: -16.6%.

For `Cc1[nH]c(=O)c(C#N)cc1-c1ccccc1`, which activation is on record?
Its activation is inconclusive: 32.5%.

With `Cc1cccc(NC(=O)c2sc3nc(-c4ccc(F)cc4)cn3c2C)n1` as the molecule, how does the activation read?
Its activation is inconclusive: 30.8%.

Which activation does the source give for `CCCNC(=O)N1[C@H](CNC(C)=O)[C@H](c2ccc(C3=CCCC3)cc2)[C@@H]1CO` here?
Its activation is inconclusive: 83.3%.

With `COC(=O)C[C@H]1CC[C@@H]2[C@@H](COc3ccc(NC(=O)Nc4cccc(F)c4)cc3C(=O)N2C)O1` as the molecule, how does the activation read?
Its activation is inconclusive: 40%.
